Assay results: US20240043566A1 (SUZHOU TRANSCENTA THERAPEUTICS, published 2024)

Target: human TGFβ1 (Sino Biological, 10804-HNAC) (human, UniProt P01137 partial chain)
Experiment: cell-based or functional assay

UniProt P01137, sequence (P01137 279-390 limits assumed): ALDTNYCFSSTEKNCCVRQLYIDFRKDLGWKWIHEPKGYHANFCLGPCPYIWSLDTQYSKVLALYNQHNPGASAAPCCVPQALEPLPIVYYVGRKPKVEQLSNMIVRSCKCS

B1: AM4B6-hIgG1-TGFβRII′ (other)
heavy: QVQLVQSGAEVKKPGASVKVSCKASGYVFTDYYMNWVRQAPGQSLEWMGDINPNNAETLYNHKFKGRVTVTVDKSISTAYMELSRLRSDDTAVYYCVKWGDGPFAYWGQGTLVTVSS[here human IgG1 constant region without letters]GGGGSGGGGSGGGGSGGGGSGGAVKFPQLCKFCDVRFSTCDNQKSCMSNCSITSICEKPQEVCVAVWRKNDENITLETVCHDPKLPYHDFILEDAASPKCIMKEKKKPGETFFMCSCSSDECNDNIIFSEEYNTSNPD
light: DIQMTQSPSSLSASVGDRVTITCKASQNVGAAVAWYQQKPGKAPKLLIYSVSDRYTGVPSRFSGSGSGTDFTLTISSLQPEDIATYYCQQYSNYPTFGQGTKLEIKRTVAAPSVFIFPPSDEQLKSGTASVVCLLNNFYPREAKVQWKVDNALQSGNSQESVTEQDSKDSTYSLSSTLTLSKADYEKHKVYACEVTHQGLSSPVTKSFNRGEC
  IC50, TGFβ reporter HEK-293 cell line (luciferase), 10 ng/ml human TGFβ1: 0.35 nM
